# Measured values as given in PubChem BioAssay AID488969 (Vanderbilt High Throughput Screening Facility, 2010).
# In all, about 110,000 compounds were measured (“z-score”: median about -0.1, highest 2% from about 2 on). This is one part of the list. The source made the active and inactive calls.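 Rule for the calls: active = z-score in the third read window above 3 or below -3; inactive = the rest.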
# Target: Metabotropic glutamate receptor 8 (Rattus norvegicus) (UniProt P70579)
# Experiment: rat mGluR8 modulators via GIRK flux, primary screen, cell-based, thallium flux, HTS (AID 488969)
# Conditions: HEK293 rat mGluR8, GIRK (G protein-gated inwardly rectifying potassium channel) thallium flux, FluoZin2; at 10 µM; stronger effect = higher value; submaximal glutamate (EC20) added with thallium
# Chain of UniProt P70579 (P70579 whole entry, looked up): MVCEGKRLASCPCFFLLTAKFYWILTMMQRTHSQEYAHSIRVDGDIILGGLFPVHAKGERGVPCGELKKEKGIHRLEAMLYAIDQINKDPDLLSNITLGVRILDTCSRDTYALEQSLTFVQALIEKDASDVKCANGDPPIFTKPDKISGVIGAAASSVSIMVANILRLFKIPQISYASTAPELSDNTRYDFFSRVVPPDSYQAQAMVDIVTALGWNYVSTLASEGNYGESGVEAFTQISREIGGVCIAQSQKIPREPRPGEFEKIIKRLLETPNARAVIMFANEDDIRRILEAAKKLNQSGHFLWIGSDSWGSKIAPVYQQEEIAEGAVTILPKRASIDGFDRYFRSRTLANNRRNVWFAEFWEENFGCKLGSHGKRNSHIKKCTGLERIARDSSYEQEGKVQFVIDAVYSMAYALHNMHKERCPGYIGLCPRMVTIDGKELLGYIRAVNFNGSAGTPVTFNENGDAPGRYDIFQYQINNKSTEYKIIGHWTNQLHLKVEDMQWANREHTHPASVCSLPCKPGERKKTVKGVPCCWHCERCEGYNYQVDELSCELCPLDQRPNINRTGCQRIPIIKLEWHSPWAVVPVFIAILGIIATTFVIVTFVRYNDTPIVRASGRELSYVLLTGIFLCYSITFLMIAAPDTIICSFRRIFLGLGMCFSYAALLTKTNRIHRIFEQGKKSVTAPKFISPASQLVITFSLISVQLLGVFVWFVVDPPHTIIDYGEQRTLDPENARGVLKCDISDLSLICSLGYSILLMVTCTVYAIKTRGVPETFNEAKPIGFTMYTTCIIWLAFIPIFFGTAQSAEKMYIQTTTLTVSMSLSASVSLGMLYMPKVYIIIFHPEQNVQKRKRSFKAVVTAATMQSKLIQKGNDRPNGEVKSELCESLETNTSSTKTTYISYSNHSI
row,SMILES,z-score
1,N#CC1=C(N)Oc2cc(O)ccc2C1C1CCCCC1 (stereo not given),-0.275
2,Cc1cccc(N2CCN(Cc3cc(=O)n4ccsc4n3)CC2)c1C,-0.557
3,O=[N+]([O-])c1cc(C(F)(F)F)ccc1NN=C1CCCC1,-0.225
4,Cc1sc2ncnc(N3CCN(CCOc4ccc(Cl)cc4)CC3)c2c1C,0.146
5,CCOC(=O)c1ccc(OS(=O)(=O)c2ccccc2)c(OC)c1,-0.00708
6,COc1ccc(S(=O)(=O)CCc2nnc(NC(=O)c3cccs3)s2)cc1,-0.075
7,COC(=O)c1ccc(C)c(NC(=O)CCSc2ccc(C)cc2)c1,-0.478
8,O=C(NN=C1CCCCCC1)c1cc(-c2ccccc2)nc2ccccc12,0.713
9,O=C(CCc1nc2ccccc2s1)Nc1ccccc1,-0.0346
10,Cc1sc2ncnc(NCCN3CCOCC3)c2c1C,-0.0966
11,CC1(C)S/C(=N/N=C/c2cccs2)NC1=O,-0.204
12,CCn1c(SCC(=O)Nc2ccccc2C)nnc1-c1ccccc1O,-0.0132
13,CCn1c(Cc2ccc(OC)cc2)nnc1SCC(=O)NC1CCCCC1,0.209
14,COc1cc(C(N)=O)cc(Br)c1OC,0.364
15,CCCc1[nH]nc2c1C(CCc1ccccc1)C(C#N)=C(N)O2 (stereo not given),0.128
16,O=C(COC(=O)CSc1nnc(-c2ccc(Cl)cc2)o1)NCc1ccc2c(c1)OCO2,-0.513
17,Cc1cc(C)n2nc3nc4c(cc3c2n1)CCCC4,0.941
18,COc1ccc(C(=O)c2ccccc2)c(O)c1,-0.498
19,COc1cc(C)c(S(=O)(=O)NCc2cccs2)cc1C,-1.12
20,O=C(NCCc1ccccc1)C(=O)NCC1(c2ccccc2)CCCC1,0.119
21,O=C(Nc1nc2ccccc2s1)C1CCCN1S(=O)(=O)c1ccc(Cl)cc1 (stereo not given),-0.802
22,COc1ccc(-c2nc(Cn3c(SCc4ccc(C)cc4)nc4ccncc43)c(C)o2)cc1OC,-0.0367
23,CN(C)c1nc(-c2ccc([N+](=O)[O-])cc2)cs1,-0.235

row,SMILES,z-score
1,CC(=O)NC(CC(=O)NC12CC3CC(CC(C3)C1)C2)c1ccccc1 (stereo not given),0.359
2,O=C(OCCCN=C1NS(=O)(=O)c2ccccc21)c1ccccc1F,-1.1
3,CCOC(=O)CS(=O)(=O)c1ccc2ccccc2c1,-0.0129
4,O=C1C(Cl)=C(Nc2ccc(F)cc2)C(=O)N1CCc1ccccc1,0.0827
5,Cc1ccc(C(=O)Oc2oc(-c3ccccc3)nc2C=Nc2ccc(N(C)C)cc2)cc1,-0.144
6,CO/N=C/NC(=O)Cc1cn(-c2ncc(C(F)(F)F)cc2Cl)c2ccccc12,0.465
7,COc1cc2c(cc1NC(C)=O)CCCC2,0.172
8,Cc1cc2nc(SCC(=O)O)nc(C)c2cc1C,-1.5
9,O=S(=O)(NCCSCc1ccc(Cl)c(Cl)c1)c1ccc2c(c1)OCCO2,0.0986
10,CC(C)CCNC(=O)CN(Cc1ccc2c(c1)OCO2)C(=O)CCC(=O)Nc1ccccn1,-0.101
11,COc1cccc(/C=N/Nc2ncnc3scc(-c4ccccc4)c23)c1OC,-0.779
12,Cc1ccc(S(=O)(=O)N2CCN(S(=O)(=O)c3ccccc3)C2c2ccc(N(C)C)cc2)cc1 (stereo not given),1.77
13,Cc1ccc(Cn2nnc3c(=O)n(CC(=O)NCc4ccco4)cnc32)cc1,-0.66
14,CC(NC(N)=O)C12CC3CC(CC(C3)C1)C2 (stereo not given),-0.205
15,Cc1c(Br)cc(C(=O)NCCCN2CCOCC2)c(C)c1C,0.355
16,O=C(CCc1ccccc1)c1ccc2c(c1)OCCCO2,-0.00374
17,COc1ccc(CC(=O)NNc2ncnc3c2cnn3C)cc1OC,-0.136
18,CC(=O)NCCOC(=O)Nc1sc(=S)n(C)c1C,-0.0717
19,Clc1nc2ccccc2cc1/C=N/Nc1nc2ccccc2[nH]1,0.246
20,CCCCN(CCCC)CC(O)COc1ccccc1Br (stereo not given),0.637
21,COc1ccc(OC)c2c(C)cc(N3CCN(C(=O)c4ccc(F)cc4)CC3)nc12,-0.195
22,CCCNC(=O)NC1C(NC(=O)NCCC)N(C)C(=O)N1C (stereo not given),0.382
23,Clc1ccc(-c2csc(N3CCc4ccccc4C3)n2)cc1,-0.0364

row,SMILES,z-score
1,C=CCc1c(C)nc(SCC(=C)C)[nH]c1=O,-0.25
2,COc1cc(OC)cc(C(=O)NC(=S)Nc2ccc(Cl)c(C(=O)O)c2)c1,0.157
3,Cc1ccc(OCC(=O)N/N=C2\CCOc3c(C)cccc32)cc1,0.136
4,O=C(COc1ccccc1)Nc1cc(C(F)(F)F)ccc1N1CCCC1,-0.434
5,CC(O)CNCCNCc1c(OCc2ccccc2)ccc2ccccc12 (stereo not given),0.624
6,O=c1c2ccccc2nc2n1C1(CCCCC1)Cc1ccccc1-2,0.0895
7,CCCN1C(=O)C(NC(=O)c2ccncc2)(C(F)(F)F)C2=C1CC(C)(C)CC2=O (stereo not given),-0.391
8,CCOC(=O)C(/C(C)=N/NC(=O)c1ccccc1[N+](=O)[O-])C(C)C (stereo not given),0.0757
9,CCOc1ccc(S(=O)(=O)NCC2CCCO2)c2cccnc12 (stereo not given),0.118
10,O=C1CC(C(=O)O)C2(CCCC2)O1 (stereo not given),-0.0157
11,COc1ccc(C)cc1S(=O)(=O)N(C)CC(=O)NC1CCCCC1,-0.723
12,O=C1c2ccccc2-c2c1cccc2C(=O)N1CCOCC1,-0.0895
13,COc1nc(N2CCOCC2)nc(-n2cccc2)n1,0.0234
14,CCC(Sc1nc2c(c(=O)n1CC)SC(C)C2)C(=O)OC (stereo not given),-0.966
15,OC(CSc1ccccc1Cl)CN1CCN(c2ccccc2F)CC1 (stereo not given),-0.478
16,COc1ccc(CNC(=O)COC(=O)CC2CCCC2)cc1,-0.194
17,Cc1ccc(NC(=O)CC2C(=O)OCC3CCCCN32)cc1Cl (stereo not given),-0.276
18,O=C(Cn1cnc2c(nnn2-c2ccccc2)c1=O)NCc1ccco1,0.628
19,COc1ccc(C2NC(=O)NC(C)=C2C(C)=O)cc1 (stereo not given),-0.186
20,CC1CCCC(NC(=O)CSc2nnnn2C)C1C (stereo not given),0.0873
21,COc1ccc(C2=C(CC(=O)O)C(=O)CC2)cc1,0.0932
22,c1ccc2oc(SCc3cn4ccccc4n3)nc2c1,-0.00786
23,CCN(CC)C(=O)C1CC(=O)N(c2ccc(OC)cc2)C1c1ccc(OC)cc1 (stereo not given),-0.282

row,SMILES,z-score
1,COc1ccc(OCC(O)CNC(=O)Nc2ccc(Cl)cc2)cc1 (stereo not given),-0.208
2,CC(=O)c1cccc(NC(=O)c2cccc(S(=O)(=O)N(C)C)c2)c1,-0.0832
3,CC1CCN(C(=O)Cn2c(=O)n(Cc3ccc4c(c3)OCO4)c(=O)c3ccccc32)CC1,-1.65
4,N#Cc1c(-c2ccccc2F)cc(-c2cccnc2)nc1N,-0.583
5,Cc1oc2cc(OC(C)C(=O)O)ccc2c(=O)c1Oc1ccccc1 (stereo not given),0.256
6,O=C1C(N2CCOCC2)=C(n2nnc3ccccc32)C(=O)c2ccccc21,-0.718
7,FC(F)(F)c1nnc(-c2ccccc2)nc1N1CCOCC1,-0.768
8,CC(C)NC(=O)c1ccc2c(c1)N(CC(=O)N1CCOCC1)C(=O)C(C)(C)O2,-0.39
9,Cc1ccc2c(c1)[C@H]1OCC[C@H]1[C@@H](c1ccncc1)N2,-0.0601
10,CCOC(=O)C1=C(C)N=C2SCCC(=O)N2C1c1cc(Br)ccc1OC (stereo not given),-0.383
11,O=C(CSc1ccc(Cl)cc1)Nc1ccc(N2CCN(C(=O)c3ccco3)CC2)cc1,-0.0566
12,CC(C)(C(=O)c1ccccc1)/[N+]([O-])=C/c1ccc(Br)cc1,-0.159
13,CC1OC(Nc2ccc(OC(F)(F)F)cc2)C(O)C(O)C1O (stereo not given),0.913
14,O=C1CC(c2cccs2)Sc2nc3ccccc3n21 (stereo not given),1.16
15,COc1ccc(-c2cn3c(C)c(C(=O)N4CCN(c5ccc(F)cc5)CC4)sc3n2)cc1,0.116
16,CC(C)=CC(=O)OCC(=O)Nc1cc([N+](=O)[O-])ccc1F,0.591
17,O=c1c(-c2ccnn2-c2ccccc2F)cnc2n1CCS2,-0.0779
18,CC(C)(C)NC(=O)COC(=O)c1nsc(Cl)c1Cl,-0.147
19,Cc1ccc2c(CC(=O)OCc3cc(=O)n4c(n3)sc3ccccc34)coc2c1,-0.0698
20,Cc1cc(/C=C2\SC(N)=NC2=O)c(C)n1-c1ccccc1,-0.446
21,COc1cccc(NC(=O)c2cc(CN3C(=O)c4ccccc4C3=O)ccc2OC)c1,-0.315
22,COc1cc(OC)cc(C(=O)NC(=S)NCCc2ccccc2)c1,2.08
23,S=C(NCc1ccco1)Nc1ccc(Cl)c(Cl)c1,active: 8.32

row,SMILES,z-score
1,COc1ccc(CC(=O)N2N=C(C)CC2(O)c2cccnc2)cc1OC (stereo not given),-0.219
2,CC(=O)NCC(=O)OCC(=O)c1ccc(C)cc1,0.0311
3,Cc1cc(O)c(C(C)C)cc1NC(=O)c1ccc(Cl)cc1,0.074
4,COc1ccc2cc(CN(CCO)C(=O)c3ccc(Br)cc3)c(=O)[nH]c2c1,-0.235
5,COc1ccc(S(=O)(=O)Cc2ccc(C(=O)N3CCN(c4ccc(Cl)cc4)CC3)o2)cc1,-0.315
6,Cc1nn(Cc2ccc(Cl)cc2Cl)c(C)c1NC(=O)c1nn(C)cc1Cl,-0.412
7,CNCCCOc1ccc(C)cc1Br,0.0215
8,Cc1sc2ncnc(NCC3COc4ccccc4O3)c2c1C (stereo not given),-1.48
9,COc1ccc(NC(=O)c2cc(Cl)ccc2NC(=O)c2ccco2)c(OC)c1,0.354
10,COc1ccc2[nH]c(=O)c(CN(C)C(=O)C3CCCCC3)cc2c1,-0.073
11,COCCn1c(C)cc(C(=O)COC(=O)CCc2ccc(S(=O)(=O)N3CCOCC3)cc2)c1C,0.0411
12,O=C(CSc1nc2ccccc2s1)N1c2ccccc2Sc2ccc(Cl)cc21,-0.287
13,CCOC(=O)c1cccc(N2C(=O)c3ccccc3S2(=O)=O)c1,-0.275
14,CC1=C(C(=O)OCc2ccccc2)C(c2ccoc2)C(C#N)=C(N)O1 (stereo not given),-0.711
15,Cc1nnsc1C(=O)Nc1ccc(Cl)cc1,0.311
16,Nc1nc(N)nc(-c2ccc(Cl)cc2)n1,-0.21
17,O=C(CSc1nc2ccccc2o1)Nc1ccc(N2CCOCC2)cc1,0.561
18,COc1ccccc1C(c1nnnn1Cc1ccccc1)N1CCC(C(N)=O)CC1 (stereo not given),-0.532
19,COc1ccc(N2CCN(C(=O)CSc3ncnc4scc(-c5ccc(C)cc5)c34)CC2)cc1,-0.142
20,O=C(CCSCc1ccccc1Cl)N1CCN(c2ccccn2)CC1,-0.486
21,Cc1ccc(SCCC(=O)N(C)C)cc1,-0.0717
22,Cc1cccc(NC(=O)NCC(c2cccnc2)N2CCOCC2)c1 (stereo not given),-0.216
23,COCCn1c(=O)[nH]c(=O)c2cc(C(=O)c3cc(OC)ccc3O)cnc21,-0.409
